Reference: US20250051471A1, “Anti-Abcb1 Antibodies” (WILLIAM ROBERT ARATHOON LIVING TRUST DATED AUGUST 29, 2016, priority 2021, published 2025)

Assays:
DX5 cells = test: FACS binding to DX5 WT, CD47 KO and ABCB1 KO cells; assay type: cell-based, human; settings: DX5 WT, CD47 KO and ABCB1 KO cells
Source text: The mono arm antibodies each have only one binding valency for the target. The wild-type DX5 (DX5 WT) cells express both ABCB1 and CD47 antigens.
The mono arm antibodies only have one binding valency for the target.
The mono arm antibodies each have only one binding valency for the target.
FIGS. 19A-19C show the binding of bispecific humanized ABCB1XCD47 antibodies KB1-1418, KB1-1419 and KB1-1420 to wild-type Adriamycin-resistant DX5 cells, CD4 KO DX5 cells and ABCB1 KO (B1 KO) DX5 cells.

human ABCB1 = biological target: T1, human ABCB1 (Homo sapiens, UniProt P08183); test: Efflux inhibition in ABCB1 over-expressing HEK 293T cells; assay type: cell-based; settings: Paclitaxel treated HEK293T cells overexpressing ABCB1
T1 construct: expressed in transfected cells
Protocol: HEK 293T cells over-expressing human ABCB1 were washed several times and aliquoted into 96-well plates as 50 I aliquots/well at a cell density of 2×10^6 cells per ml in phenol red-free Dulbecco's Modified Eagle's Medium (DMEM). Cells were mixed with 50 I aliquots of antibodies and 10 1 6 μM Calcein AM, and incubated for 2 h at 37° C. The cells were then washed twice and finally resuspended in 200 μl PBS. Calcein AM fluorescence retained in the cells was measured by flow cytometry. Efflux blockade was measure using the Multidrug Resistance Direct Dye Efflux Assay (Chemicon) following the manufacturer's protocol.

A2780ADR cells [1] = test: In vivo anti-tumor effects on A2780ADR multidrug resistance xenograft model; set-up: species or system athymic nude mice
Protocol: Prior to implant cells were washed three times with D-PBS and resuspended in the same. Resuspended cells were mixed with an equal volume of Matrigel and xenografts were established by s.c. injection of 0.5×10^6 tumor cells into 5-8-week-old female athymic nude mice. Tumors were measured three times a week using a calibrated digital caliper, and tumor volumes (TV) were calculated as per the formula: TV=/*L*S*S, where L is the long axis and s is the short axis of the tumor.
Antibody and paclitaxel (or vehicle) were administered i.p. two times per week for two weeks. Paclitaxel or vehicle was dosed four hours after the antibody.

A2780ADR cells [2] = test: Therapeutic effect against human A2780ADR xenograft tumors in nude mice (Example 10); assay type: in vivo, athymic nude mice
Protocol: A2780ADR cells were grown in RPMI-1640 supplemented with 10% FBS and 100 nM doxorubicin. Prior to implant cells were washed three times with D-PBS and resuspended in the same. Resuspended cells were mixed with an equal volume of Matrigel and xenografts were established by s.c. injection of 0.5×10^6 tumor cells into 7-8-week-old female athymic nude mice (Charles River).
Tumors were measured three times a week using a calibrated digital caliper, and tumor volumes (TV) were calculated as per the formula: TV=/*L*S*S, where L is the long axis and s is the short axis of the tumor. When mean tumor volumes reached 100-200 mm^3, mice were randomized into 6 treatment groups (n=6): (i) Isotype control hIgG1, 3 mg/kg, (ii) Isotype control hIgG1, 3 mg/kg plus paclitaxel, 20 mg/kg, (iii) 5f9 human IgG1 antibody, 3 mg/kg, (iv) 5f9 human IgG1 antibody, 3 mg/kg plus paclitaxel, 20 mg/kg, (v) 15D3 HIR2/KT14 KbR1/B1.89v1.huL1 (KV2) hmz LC, 3 mg/kg, (vi) 15D3 HIR2/KT14 KbR1/B1.89v1.huL1 (KV2) hmz LC, 3 mg/kg plus paclitaxel, 20 mg/kg.
Antibody and paclitaxel (or vehicle) were administered i.p. two time per week for two weeks. […]
Tumor volumes and body weights were measured twice a week. […] Tumor volume is calculated as per the formula TV=/*L*S*S where L is the long axis and S is the short axis of the tumor. Body weights were recorded before treatment started and were monitored throughout the study. […]

[3] = system: human MES-SA/DX5 multidrug resistant cell model target; test: Flow cytometry-based ADCC assay with human PBMC effector cells; assay type: cell-based

B1: KB1-1420: humanized ABCB1XCD47 bispecific antibody, HIR2/KbR1 Fc, B1.89v1.huL1(KV2) common light chain (antibody)
heavy 1: EVQLVESGGVVVQPGGSLRLSCAASGFTFSRYTMSWVRQAPGKGLEWVATISSGGGNTYYPDSVKGRFTVSRDNSKNSLYLQMNSLRTEDTALYYCARYGAGDAWFAYWGQGTLVTVSSASTKGPSVFPLAPSSKSTSGGTAALGCLVKDYFPEPVTVSWNSGALTSGVHTFPAVLQSSGLYSLSSVVTVPSSSLGTQTYICNVNHKPSNTKVDKRVEPKSCDKTHTCPPCPAPELLGGPSVFLFPPKPKDTLMISRTPEVTCVVVDVSHEDPEVKFNWYVDGVEVHNAKTKPREEQYNSTYRVVSVLTVLHQDWLNGKEYKCKVSNKALPAPIEKTISKAKGQPREPQVCTLPPSREEMTKNQVSLSCAVKGFYPSDIAVEWESNGQPENNYKTTPPVLDSDGSFVLVSKLTVDKSRWQQGNVFSCSVMHEALHNHYTQKSLSLSPG
heavy 2: QVQLVQSGAEVKKPGASVKVSCKASGYTFTNYNMHWVRQAPGQRLEWMGTIYPGNDDTSYNQKFKDRVTITADTSASTAYMELSSLRSEDTAVYYCARGGYRAMDYWGQGTLVTVSSASTKGPSVFPLAPSSKSTSGGTAALGCLVKDYFPEPVTVSWNSGALTSGVHTFPAVLQSSGLYSLSSVVTVPSSSLGTQTYICNVNHKPSNTKVDKRV[human IgG1 Fc with changes omitted]
light: DIVMTQSPLSLPVTPGEPASISCRSSQTIVHSNGNTYLEWYLQKPGQSPQLLIYKVSKRFSGVPDRFSGSGSGTDFTLKISRVEAEDVGVYYCFQASHFPRTFGQGTKLEIKRTVAAPSVFIFPPSDEQLKSGTASVVCLLNNFYPREAKVQWKVDNALQSGNSQESVTEQDSKDSTYSLSSTLTLSKADYEKHKVYACEVTHQGLSSPVTKSFNRGEC
- binding to ABCB1 and CD47 antigens expressed on cancer cell surface (DX5 cells): specifically bind
- efflux inhibition (human ABCB1): clear efflux inhibition
- effect on tumor growth rates (A2780ADR cells [1]; A2780ADR model, Example 9, FIG. 30): significantly affects tumor growth rates; also recorded: significantly effects tumor growth rates
- single agent activity (A2780ADR cells [1]; A2780ADR xenograft): efficacious as a single agent
- survival (A2780ADR cells [1]; A2780ADR xenograft): significantly improves survival
- enhancement of paclitaxel-mediated cell killing (A2780ADR cells [1]; A2780ADR xenograft, with paclitaxel): enhances paclitaxel-mediated cell killing
- single agent activity (A2780ADR cells [1]; A2780ADR xenograft, listed as 15D3 HIR2/KT14 KbR1/B1.89v1.huL1 (KV2) hmz LC): efficacious; also recorded: significant single agent activity
- dose-dependent single agent activity (A2780ADR cells [1]; at 3 and 1 mg/ml doses): significant dose-dependent single agent activity
- therapeutic effect against human xenograft tumors (A2780ADR cells [2]; four-dose regime, nude mice): strong therapeutic effect
- effect on subcutaneous ovarian adenocarcinoma tumors combined with paclitaxel (A2780ADR cells [2]; plus paclitaxel, compared to isotype control group): strong therapeutic effect; also recorded: dramatically inhibited the growth
- ADCC dose-response ([3]; E:T of 8:1, escalating concentrations): dose-dependent manner
- target cell death (ADCC) compared to the isotype control ([3]; all E:T ratios, 5 and 20 μg/ml): significantly higher target cell death

Entries after “also recorded” stand apart in the source; their conditions may differ.
